This note sets out measurements from the supplement of paper PMC4967469.

Holding throughout (assay): Viability of human cancer cell lines after 72 h of drug (GDSC screen)
Compound in one experiment: C/C=C(/C)C(=O)O[C@H]1C(C)=C2[C@H]([C@@H]1OC(=O)CCCCCCC)[C@@](C)(OC(C)=O)C[C@H](OC(=O)CCC)[C@@]1(O)[C@H]2OC(=O)[C@@]1(C)O [Thapsigargin]
As to conditions: top dose 0.512 µM; top dose inferred. The protocol: (§1)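 Human cancer cell lines in 384-well plates, medium with 10% serum, drug for 72 h over a 256-fold dose range (nine 2-fold or five 4-fold steps up to the top dose). Adherent lines were fixed and stained with the nucleic acid dye Syto60, suspension lines read with resazurin; signal relative to control wells, capped at 0 and 100%. One two-parameter sigmoid per drug and line, fitted in a mixed model over all curves with the slope shared within a line.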

Compound in the next experiment: C=CC(=O)Nc1cc(-n2c(=O)ccc3cnc4ccc(-c5cn[nH]c5)cc4c32)ccc1C [QL-X-138]
As to conditions: top dose 10.24 µM; top dose inferred. How it is done:
as §1

Compound in the next experiment: CCn1c(-c2nonc2N)nc2cnc(Oc3cccc(NC(=O)c4ccc(OCCN5CCOCC5)cc4)c3)cc21 [GSK269962A]
The settings on record: top dose 5 µM; screen: GDSC drug entry 1192; top dose inferred. How it is done:
as §1

Compound in the next experiment: COc1cc(N2CCC(O)CC2)ccc1Nc1cc(Nc2ccccc2S(=O)(=O)C(C)C)c2cc[nH]c2n1 [MPS-1-IN-1]
As to conditions: top dose 20 µM; top dose inferred. How it is done:
as §1

Compound in a further experiment: COc1cc2ncnc(-n3nc(-c4ccccn4)nc3N)c2cc1OC [CP466722]
As to conditions: top dose 16 µM; top dose inferred. The protocol: as §1

Compound in another experiment: COc1nc(C)cnc1NS(=O)(=O)c1cccnc1-c1ccc(-c2nnco2)cc1 [Zibotentan]
As to conditions: top dose 20 µM; top dose inferred. The protocol:
as §1

Compound in the next experiment: C[C@]1(c2nc3c(C(N)=O)cccc3[nH]2)CCCN1 [ABT-888]
The settings on record: top dose 5 µM; top dose inferred. The protocol: as §1

Compound in another experiment: Cc1ccc(F)c(NC(=O)Nc2ccc(-c3cccc4[nH]nc(N)c34)cc2)c1 [ABT-869]
The settings on record: top dose 1.024 µM; top dose inferred. How it is done:
as §1

Compound in a further experiment: Cc1cnc(-c2cnc(NCCNc3ccc(C#N)cn3)nc2-c2ccc(Cl)cc2Cl)[nH]1 [CHIR-99021]
The protocol:
as §1

Compound in the next experiment: Nc1ccn([C@@H]2O[C@H](CO)[C@@H](O)[C@@H]2O)c(=O)n1 [Cytarabine]
As to conditions: top dose 2 µM. The protocol: as §1

Compound in the next experiment: O=c1cc(-c2cccc3c2Sc2ccccc2S3)oc(N2CCOCC2)c1 [KU-55933]
As to conditions: top dose 10 µM. How it is done: as §1

Compound in another experiment: COc1cc(O)c2c(c1)/C=C/C[C@H](O)[C@H](O)C(=O)/C=C\C[C@H](C)OC2=O [(5Z)-7-Oxozeaenol]
The settings on record: top dose 10 µM; top dose inferred. The protocol: as §1

The mark [1] stands for this setting: top dose 2.56 µM, screen: GDSC drug entry 154.
[2] abbreviates: top dose 10 µM, screen: GDSC drug entry 1241, top dose inferred.

pIC50: −log10 of the molar value. A lower IC50 marks a more sensitive line; where the fit passes the top or lowest dose, that dose stands as a limit. The AUC spans the tested range (256-fold, ending at the top dose) of the same fit; it is 1 without any effect and falls as sensitivity rises. For some of these results: An inferred top dose was calculated from the reported fits. For some of these results: An entry number marks a drug with two screens in the source, which often give different values. Some results are limits rather than exact numbers.

For the cell line AGS (stomach, adherent), the AUC with Thapsigargin amounted to 0.336; in the experiment with QL-X-138, 0.919; in the experiment with GSK269962A, 0.721; with MPS-1-IN-1, 0.929; with CP466722, 0.986; in the experiment with Zibotentan it was 0.99. In addition, the AUC stood at 0.99 with ABT-888; 0.989 with ABT-869; 0.99 with CHIR-99021 (setting [1]); 0.803 in the experiment with Cytarabine; 0.95 with KU-55933. Moreover, the pIC50 (commonly the IC50 on a negative log10 scale, so that one unit is a factor of ten) with Thapsigargin was 7.93; in the experiment with QL-X-138, less than 4.99; with GSK269962A, 5.91; with MPS-1-IN-1 it was less than 4.70; in the experiment with CP466722, less than 4.80; with Zibotentan, less than 4.70. The pIC50 with ABT-888 was less than 5.30; with ABT-869, less than 5.99; in the experiment with CHIR-99021 (setting [1]), less than 5.59; with Cytarabine, 6.06; with KU-55933 it was less than 5.00.
As to CAPAN-1 (pancreas, adherent), the AUC was 0.241 with Thapsigargin; 0.828 in the experiment with QL-X-138; 0.985 with GSK269962A; 0.939 in the experiment with MPS-1-IN-1; 0.866 with CP466722; 0.983 with Zibotentan. Besides, the AUC with ABT-888 stood at 0.979; in the experiment with ABT-869, 0.986; with CHIR-99021 (setting [1]), 0.984; with Cytarabine, 0.692; with KU-55933 it was 0.975. Moreover, the negative-log IC50 (pIC50) was 8.29 with Thapsigargin; 5.14 with QL-X-138; less than 5.30 in the experiment with GSK269962A; less than 4.70 in the experiment with MPS-1-IN-1; less than 4.80 with CP466722; less than 4.70 with Zibotentan. Further, the negative logarithm of the IC50 (pIC50) with ABT-888 was less than 5.30; in the experiment with ABT-869, less than 5.99; in the experiment with CHIR-99021 (setting [1]), less than 5.59; with Cytarabine it was 6.34; in the experiment with KU-55933, less than 5.00.
As to FADU (head and neck, adherent), the AUC with Thapsigargin is 0.41; with QL-X-138, 0.907; in the experiment with GSK269962A, 0.939; with MPS-1-IN-1 it was 0.971; in the experiment with CP466722 it was 0.918; in the experiment with Zibotentan it was 0.987. Besides, the AUC in the experiment with ABT-888 was 0.988; with ABT-869, 0.987; with CHIR-99021 (setting [1]) it was 0.988; in the experiment with Cytarabine it was 0.755; in the experiment with KU-55933, 0.984. Also, the pIC50 with Thapsigargin is 7.74; with QL-X-138 it was less than 4.99; with GSK269962A, less than 5.30; with MPS-1-IN-1, less than 4.70; with CP466722, less than 4.80; with Zibotentan, less than 4.70. In addition, the negative-log IC50 (pIC50) was less than 5.30 with ABT-888; less than 5.99 with ABT-869; less than 5.59 with CHIR-99021 (setting [1]); 6.18 with Cytarabine; less than 5.00 in the experiment with KU-55933.
For the cell line HCC202 (breast, adherent), the AUC was determined as 0.463 with Thapsigargin; 0.918 with GSK269962A; 0.981 with MPS-1-IN-1; 0.864 with (5Z)-7-Oxozeaenol; 0.707 with CP466722; 0.962 in the experiment with Zibotentan. Besides, the AUC with ABT-888 was determined as 0.976; with CHIR-99021 (setting [2]), 0.975; with Cytarabine, 0.866; with KU-55933, 0.979. Moreover, the pIC50 with Thapsigargin is 7.61; with GSK269962A it was less than 5.30; with MPS-1-IN-1 it was less than 4.70; with (5Z)-7-Oxozeaenol it was less than 5.00; with CP466722 it was 5.31; with Zibotentan, less than 4.70. Moreover, the pIC50 with ABT-888 is less than 5.30; with CHIR-99021 (setting [2]), less than 5.00; in the experiment with Cytarabine, less than 5.70; with KU-55933, less than 5.00.
With HuP-T4 (pancreas, adherent), the AUC with Thapsigargin was 0.266; in the experiment with QL-X-138, 0.698; with GSK269962A, 0.756; with MPS-1-IN-1 it was 0.84; with CP466722, 0.691; in the experiment with Zibotentan it was 0.979. Further, the AUC is 0.984 with ABT-888; 0.952 with ABT-869; 0.984 with CHIR-99021 (setting [1]); 0.607 in the experiment with Cytarabine; 0.957 with KU-55933. The pIC50 was 8.18 with Thapsigargin; 5.62 in the experiment with QL-X-138; 5.74 with GSK269962A; 4.82 with MPS-1-IN-1; 5.45 with CP466722; less than 4.70 in the experiment with Zibotentan. Moreover, the negative-log IC50 (pIC50) is less than 5.30 with ABT-888; less than 5.99 with ABT-869; less than 5.59 with CHIR-99021 (setting [1]); 6.60 in the experiment with Cytarabine; less than 5.00 with KU-55933.
IGR-1 (melanoma, adherent): the AUC with Thapsigargin turned out to be 0.332; with QL-X-138, 0.913; in the experiment with GSK269962A, 0.979; with MPS-1-IN-1, 0.836; with CP466722, 0.856; in the experiment with Zibotentan it was 0.98. For the same cell line, the AUC worked out at 0.99 with ABT-888; 0.99 with ABT-869; 0.91 in the experiment with CHIR-99021 (setting [1]); 0.943 with Cytarabine; 0.976 with KU-55933. The negative-log IC50 (pIC50) is 7.94 with Thapsigargin; less than 4.99 in the experiment with QL-X-138; less than 5.30 with GSK269962A; 4.96 in the experiment with MPS-1-IN-1; 4.98 with CP466722; less than 4.70 in the experiment with Zibotentan. Besides, the negative logarithm of the IC50 (pIC50) with ABT-888 is less than 5.30; in the experiment with ABT-869, less than 5.99; with CHIR-99021 (setting [1]), less than 5.59; with Cytarabine it was less than 5.70; in the experiment with KU-55933, less than 5.00.
